These results are taken from PMC4336329 (PLoS ONE, 2015).

The structures appear in SMILES notation. Out of some 310,000 compounds screened, about 14,000 (4.5%) showed an effect of 50% or more. Effects have a minus sign here. The list shows a part of the results.
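Also: peak tail current of the secondary pulse compared with the same well before compound.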

The target of this test is human ether-à-go-go-related gene (hERG) potassium channel (human, UniProt Q12809). Description: primary screen, population patch clamp on CHO cells stably expressing hERG.
human ether-à-go-go-related gene (hERG) potassium channel, sequence (Q12809 whole entry, looked up): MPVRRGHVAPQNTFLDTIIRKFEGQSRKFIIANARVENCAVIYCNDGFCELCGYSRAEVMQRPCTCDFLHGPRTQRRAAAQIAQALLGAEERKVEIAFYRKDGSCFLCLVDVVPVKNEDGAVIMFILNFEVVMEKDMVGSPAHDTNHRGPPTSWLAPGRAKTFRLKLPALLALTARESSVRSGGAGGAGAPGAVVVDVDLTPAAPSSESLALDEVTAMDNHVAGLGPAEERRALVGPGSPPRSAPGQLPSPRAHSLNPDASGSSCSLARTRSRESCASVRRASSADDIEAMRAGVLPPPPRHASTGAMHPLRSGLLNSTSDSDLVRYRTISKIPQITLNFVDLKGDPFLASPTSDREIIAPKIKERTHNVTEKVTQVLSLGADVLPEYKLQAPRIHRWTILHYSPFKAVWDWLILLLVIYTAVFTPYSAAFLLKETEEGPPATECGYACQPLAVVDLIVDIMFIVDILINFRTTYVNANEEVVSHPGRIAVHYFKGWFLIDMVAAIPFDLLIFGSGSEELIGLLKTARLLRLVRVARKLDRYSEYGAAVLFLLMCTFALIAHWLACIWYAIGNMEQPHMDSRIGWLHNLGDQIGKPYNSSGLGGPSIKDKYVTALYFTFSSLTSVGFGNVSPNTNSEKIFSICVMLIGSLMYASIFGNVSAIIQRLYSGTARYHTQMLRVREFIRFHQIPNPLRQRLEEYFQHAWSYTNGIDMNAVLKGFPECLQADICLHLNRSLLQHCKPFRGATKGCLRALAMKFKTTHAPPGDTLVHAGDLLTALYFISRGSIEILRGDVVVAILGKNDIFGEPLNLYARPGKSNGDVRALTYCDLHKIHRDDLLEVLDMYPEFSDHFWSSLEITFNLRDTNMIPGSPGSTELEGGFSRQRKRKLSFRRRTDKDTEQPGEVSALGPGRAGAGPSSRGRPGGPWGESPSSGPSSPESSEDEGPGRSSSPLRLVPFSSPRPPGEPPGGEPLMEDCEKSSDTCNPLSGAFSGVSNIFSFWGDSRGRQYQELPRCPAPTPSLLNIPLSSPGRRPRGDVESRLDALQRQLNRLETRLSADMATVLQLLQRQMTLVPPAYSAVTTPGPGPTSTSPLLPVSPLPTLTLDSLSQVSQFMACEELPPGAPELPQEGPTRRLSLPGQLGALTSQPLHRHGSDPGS
Consider `Cc1c(NC(=O)C2CCCNC2=O)c(=O)n(-c2ccccc2)n1C` (centres unmarked), for which the “hERG current change (%, negative = inhibition) at 10uM” value came out at 4.41%. To `CCOC(=O)c1c(C)[nH]c(C(=O)COC(=O)CNC(=O)c2ccc(Br)cc2)c1C` belongs 1.36%; to `Cn1c(=O)c2c(n(C)c1=O)=NC1(CCCCC1)N=2`, 6.48%. On to `CCOc1ccc(CNC(=O)C2CCN(S(=O)(=O)N3CCCC3)CC2)cc1OC`, for which the “hERG current change (%, negative = inhibition) at 10uM” value amounted to 10.6%. As for `Fc1cccc(Cc2noc(CN3CCC(c4ccncc4)CC3)n2)c1`, the figure is -21.4%; as for `COc1cccc(CNS(=O)(=O)c2cc(Br)cc3c2N(C(C)=O)C(C)C3)c1` (centres unmarked), -27.3%; as for `COc1ccccc1C(=O)NC1CCCCCCC1`, 5.2%.

For `O=C(c1cnccn1)N(Cc1ccco1)C1(C(=O)NC2CCCC2)CCCCC1`, the “hERG current change (%, negative = inhibition) at 10uM” value came out at 1.3%.

As for `COc1ccc(CC2NCCC3=CC(=O)CCC32)cc1O` (centres unmarked), the “hERG current change (%, negative = inhibition) at 10uM” value came to 12.3%. As for `CCOc1ccc(-n2c(=O)[nH]cc(C(=O)N3CCCc4ccccc43)c2=O)cc1`, the figure is -9.75%; as for `CCCNC(=O)N1C2=NC(C(=O)OC)=C(C(=O)OC)[C@@H]3N(Cc4ccccc4)c4ccccc4[C@]23C[C@H]1CO`, -9.75%; as for `Cc1ccsc1/C=N/NC(=O)CNC(=O)c1ccco1`, 18.6%. As for `Cc1cc(C)c(S(=O)(=O)Nc2ccnc(-c3cccnc3)n2)c(C)c1`, the figure is 13.4%. Consider `O=C(NCC1CCCN1S(=O)(=O)c1cccs1)C(=O)Nc1ccc(F)cc1` (centres unmarked), for which the “hERG current change (%, negative = inhibition) at 10uM” value was -47.5%. As for `Cc1nc2ccc(C(=O)N/N=C/c3ccccc3O)cc2[nH]1`, the “hERG current change (%, negative = inhibition) at 10uM” value stood at 9.25%. To `CC(=O)Oc1c(Br)cc(N(C(C)=O)S(=O)(=O)c2ccccc2)c2ccccc12` belongs 15.3%; to `COCCNC(=O)C(c1ccc(C)o1)N(Cc1cccs1)C(=O)c1snc(C(N)=O)c1N` (centres unmarked), -10.6%; to `Cc1ccc(S(=O)(=O)N2CCCCC2)cc1NC(=O)CSc1nncn1-c1ccccc1`, -35.2%.

With `CC(=O)Nc1ccc(S(=O)(=O)Nc2ccccc2C(=O)N2CCCC2)cc1`, the “hERG current change (%, negative = inhibition) at 10uM” value amounted to 17%. To `CC(C)(C)C(=O)CN1CCN(C2c3ccccc3-c3ccccc32)CC1` belongs -6.25%. As for `CCn1c(SCC(=O)NC2CCCC2)nnc1-c1ccccn1`, the “hERG current change (%, negative = inhibition) at 10uM” value is reported as 13.4%. Take `Cc1ccc(C)c(NC(=O)c2cc(C)nc3ccccc23)c1`: the “hERG current change (%, negative = inhibition) at 10uM” value is given as -12%. To `COc1ccc(N=C2S/C(=C\c3cc(C)n(C)c3C)C(=O)N2C)cc1` belongs 9.87%; to `Cc1noc(C)c1CSCC(=O)N(C)CC(=O)Nc1ccc(F)cc1`, -3.23%; to `O=C(NNc1nc2c(F)cccc2s1)c1ccc(F)cc1`, 21.1%. To `O=S(=O)(c1ccc(S(=O)(=O)N(Cc2ccco2)Cc2ccccc2Cl)cc1)N1CCCC1` belongs 11.2%. To `Cc1[nH]c2ccccc2c1C(=O)C(C)Sc1nnc(C2CC2)o1` (centres unmarked) belongs -3.91%; to `O=C(C1CCCN(C2CC(=O)N(c3ccc(Cl)cc3)C2=O)C1)N1CCCC1` (centres unmarked), 12.2%. With `COc1ccc(Cn2nc(C(=O)O)c3ccccc3c2=O)cc1F`, the “hERG current change (%, negative = inhibition) at 10uM” value is -0.829%. As for `Cc1ccc(C)c(CN2C(=O)NC3(CCCCCC3)C2=O)c1`, the figure is 19.6%; as for `Cc1ccc(S(=O)(=O)NCc2ccc(C(=O)NCCc3ccc(S(N)(=O)=O)cc3)cc2)cc1`, 15%. To `O=c1cc(CSc2ccc(Cl)cc2)nc(N2CCOCC2)[nH]1` belongs 7.86%.

As to `CSCC[C@H](NC(=O)c1ccc2c(c1)OCO2)c1nnc2ccccn12`, the “hERG current change (%, negative = inhibition) at 10uM” value was -2.8%. As for `Cc1cc(C)c2c(N)c(C(=O)Nc3ccc(C)c(C)c3)sc2n1`, the figure is 8.41%; as for `O=C1CC(N2CCC(n3c(=O)[nH]c4ccccc43)CC2)C(=O)N1Cc1ccccc1` (centres unmarked), -21.4%.

Regarding `O=C(NCCc1ccccc1F)[C@@H]1CSC2c3ccccc3C(=O)N21` (some centres unmarked), the “hERG current change (%, negative = inhibition) at 10uM” value was -6.84%. To `CCC(NC(=O)c1ccccc1NC(=O)c1ccccc1)C(=O)NNC(=O)c1cccnc1` (centres unmarked) belongs 11%; to `N#Cc1cnc2sc3ccccc3n2c1=N`, -19.9%; to `COc1ccc(OC)c(C2c3c(oc4ccccc4c3=O)C(=O)N2CCCN(C)C)c1` (centres unmarked), 11.9%. To `O=C(COC(=O)CNS(=O)(=O)c1ccc(Br)cc1Cl)NCCc1ccccc1` belongs -13.6%; to `COC(=O)C(NC(C)=O)(Nc1nc2c(C)cc(C)cc2s1)C(F)(F)F` (centres unmarked), 16.1%. Consider `CCOCCCNC(=S)N1CCC(NC(=O)C2CCCCC2)CC1`, for which the “hERG current change (%, negative = inhibition) at 10uM” value was -0.645%. To `O=C(c1ccncc1)N1CCN(C(=O)c2cccs2)CC1` belongs 6.46%; to `O=C(CNS(=O)(=O)c1ccc2ccccc2c1)Nc1ccc(F)c(F)c1F`, 5.27%; to `O=C(O)CN1C(=O)/C(=C\c2cn(-c3ccccc3)nc2-c2ccccc2)SC1=S`, 14.4%. To `O=C(O)CSc1nnc(CNc2ccc(Cl)cc2)n1Cc1ccccc1` belongs -15.6%; to `C=C(C)C(=O)N1CC2(CC(c3cccc(NC(=O)CCCCC)c3)=NO2)C[C@H]1C(N)=O` (some centres unmarked), -2.39%.

For `CCO[C@H]1OC(C(=O)N2CCN(Cc3ccc4c(c3)OCO4)CC2)=C[C@@H](C2CCCCC2)[C@@H]1CCCO`, the “hERG current change (%, negative = inhibition) at 10uM” value is given as -55.5%. To `COc1ccc(-c2nc(CS(=O)(=O)CC(=O)NCCCc3ccccc3)c(C)o2)cc1` belongs 7.06%. As for `Cc1c(CC(=O)NCCCCCC(=O)O)c(=O)oc2cc3occ(-c4ccccc4)c3cc12`, the figure is 12%; as for `COc1ccc(CCNC(=O)[C@@H](NC(=O)c2ccccc2F)C(C)C)cc1OC`, -9.87%; as for `Cc1ccc2c(nc3s/c(=C\c4ccc(-c5ccccc5C(=O)O)o4)c(=O)n32)c1C`, 18.8%.

With `COc1cc(/C=N/N2C(=O)c3ccccc3C2=O)ccc1O`, the “hERG current change (%, negative = inhibition) at 10uM” value is listed as 2.22%. As for `Cc1ccccc1N1C(=O)c2cc(S(N)(=O)=O)c(Cl)cc2NC1C` (centres unmarked), the “hERG current change (%, negative = inhibition) at 10uM” value amounted to 11.7%. As for `Clc1ccccc1CO/N=C1\CCCc2nonc21`, the figure is -3.54%; as for `Cc1nc2ccc(NC(=O)C3CCCCC3)cc2s1`, -2.22%. To `COc1ccccc1CN1CCC(CNS(=O)(=O)c2cc(-c3cc(C)no3)ccc2C)CC1` belongs -61.3%; to `CCCCOCCCN1CC(=O)N2[C@@H](Cc3c([nH]c4ccccc34)C2(C)C)C1=O`, 16.8%. To `CN(Cc1cnccn1)C(=O)CC1C(=O)NCCN1Cc1cccc(F)c1` (centres unmarked) belongs 6.51%; to `Cn1cc([C@@H]2C[C@H]3CN(C4CCCC4)C(=O)[C@]34CCCN24)c(-c2ccccc2)n1`, -18.5%. For the molecule `CC12CCC3C(CC=C4CC(O)CCC43C)C1C/C(=C\c1ccccc1F)C2=O` (centres unmarked), the “hERG current change (%, negative = inhibition) at 10uM” value was -27.7%. To `CC(=O)Nc1ccc(Oc2cnccn2)cc1` belongs 9%; to `CCNS(=O)(=O)c1ccc(-c2ccc(-n3cnnn3)cc2)cc1`, -21.1%. As for `O=P1(NCc2ccco2)COc2ccccc2OC1`, the figure is 0.63%; as for `O=C1C(Cl)=C(N2CCN(Cc3ccccc3)CC2)C(=O)N1c1ccccc1`, 5.17%; as for `COCCNC(=S)N/N=C(\C)c1ccc(OC)cc1`, 1.26%.

As to `CCCCOc1ccc(/C=C/C2=CC(C)(C)NC(=S)N2)cc1OCC`, the “hERG current change (%, negative = inhibition) at 10uM” value is given as 7.58%.

As to `CCCc1cc(=O)[nH]c(SCc2nc3ccccc3o2)n1`, the “hERG current change (%, negative = inhibition) at 10uM” value is 4.41%.

For the molecule `Cc1ccc(C(=O)NC(=S)Nc2ccc3c(c2)OCCO3)c(C)c1`, the “hERG current change (%, negative = inhibition) at 10uM” value worked out at 4.11%. To `COc1cccc(C2CC(=O)N3CN(c4cccc(Cl)c4C)CSC3=C2C#N)c1OC` (centres unmarked) belongs 8.86%; to `COCc1cc(=O)[nH]c(-c2ccc(C(F)(F)F)cc2)n1`, 11.3%. On to `Cc1ccccc1CN1CCN(CC(=O)NCc2ccccc2)CC1`, for which the “hERG current change (%, negative = inhibition) at 10uM” value was -22.8%.

`Cc1ccc(C(=O)Nc2cc(C)nn2CCC#N)cc1`: the “hERG current change (%, negative = inhibition) at 10uM” value was -28.6%. To `Cc1ccccc1NC(=O)CSc1nnc(C)c2ccccc12` belongs -11.1%; to `O=C(NCc1ccncc1)C1=NN(c2ccccc2)C(=O)CC1`, 6.06%. As for `Cc1ccc(-c2csc(NC(=O)CSc3ncn(-c4ccccc4)n3)n2)cc1`, the figure is 3.86%. As for `CCn1cc([N+](=O)[O-])c(C(=O)NCc2ccc(Cl)cc2)n1`, the figure is -6.18%; as for `CCOc1ccc(NC(=O)c2cccc(-n3cccc3)c2)cc1S(=O)(=O)N1CCOCC1`, -30.4%; as for `COCCNC(=S)Nc1ccccc1[N+](=O)[O-]`, 43.5%.

On to `O=C(NCc1ccccc1)C(c1ccccc1F)N(C(=O)c1csnn1)C1CCCC1` (centres unmarked), for which the “hERG current change (%, negative = inhibition) at 10uM” value is listed as 7.52%. To `O=C1Nc2ccc(Br)cc2C(c2ccccc2Cl)=NC1O` (centres unmarked) belongs -48.6%. To `CC(=O)NC(Cc1cccc(F)c1)C(=O)NC1CCN(C(=O)c2cccc(C)c2)CC1` (centres unmarked) belongs 12%; to `CCc1sc(N(C(=O)Cc2ccccc2)c2ccc(F)cc2)nc1-c1ccccc1`, 18.8%. To `COc1ccc(CN(C)CC(=O)c2c(N)n(Cc3ccccc3)c(=O)n(C)c2=O)c(OC)c1` belongs -66.1%; to `Cc1ccc(CSc2nncn2-c2ccccn2)cc1`, 3.55%; to `COc1cc(CC(=O)N/N=C/c2ccccc2)c([N+](=O)[O-])cc1OC`, 0.219%.
